Assay results from paper PMC4336329 (PLoS ONE, 2015).
The whole screen tested about 310,000 compounds, of which about 14,000 (4.5%) showed an effect of 50% or more. Effects have a minus sign here. Some of the results follow.

The compounds below were run against human ether-à-go-go-related gene (hERG) potassium channel (human, UniProt Q12809) (assay: primary screen, population patch clamp on CHO cells stably expressing hERG).
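Also: peak tail current of the secondary pulse compared with the same well before compound.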

Chain of human ether-à-go-go-related gene (hERG) potassium channel (Q12809 whole entry, looked up): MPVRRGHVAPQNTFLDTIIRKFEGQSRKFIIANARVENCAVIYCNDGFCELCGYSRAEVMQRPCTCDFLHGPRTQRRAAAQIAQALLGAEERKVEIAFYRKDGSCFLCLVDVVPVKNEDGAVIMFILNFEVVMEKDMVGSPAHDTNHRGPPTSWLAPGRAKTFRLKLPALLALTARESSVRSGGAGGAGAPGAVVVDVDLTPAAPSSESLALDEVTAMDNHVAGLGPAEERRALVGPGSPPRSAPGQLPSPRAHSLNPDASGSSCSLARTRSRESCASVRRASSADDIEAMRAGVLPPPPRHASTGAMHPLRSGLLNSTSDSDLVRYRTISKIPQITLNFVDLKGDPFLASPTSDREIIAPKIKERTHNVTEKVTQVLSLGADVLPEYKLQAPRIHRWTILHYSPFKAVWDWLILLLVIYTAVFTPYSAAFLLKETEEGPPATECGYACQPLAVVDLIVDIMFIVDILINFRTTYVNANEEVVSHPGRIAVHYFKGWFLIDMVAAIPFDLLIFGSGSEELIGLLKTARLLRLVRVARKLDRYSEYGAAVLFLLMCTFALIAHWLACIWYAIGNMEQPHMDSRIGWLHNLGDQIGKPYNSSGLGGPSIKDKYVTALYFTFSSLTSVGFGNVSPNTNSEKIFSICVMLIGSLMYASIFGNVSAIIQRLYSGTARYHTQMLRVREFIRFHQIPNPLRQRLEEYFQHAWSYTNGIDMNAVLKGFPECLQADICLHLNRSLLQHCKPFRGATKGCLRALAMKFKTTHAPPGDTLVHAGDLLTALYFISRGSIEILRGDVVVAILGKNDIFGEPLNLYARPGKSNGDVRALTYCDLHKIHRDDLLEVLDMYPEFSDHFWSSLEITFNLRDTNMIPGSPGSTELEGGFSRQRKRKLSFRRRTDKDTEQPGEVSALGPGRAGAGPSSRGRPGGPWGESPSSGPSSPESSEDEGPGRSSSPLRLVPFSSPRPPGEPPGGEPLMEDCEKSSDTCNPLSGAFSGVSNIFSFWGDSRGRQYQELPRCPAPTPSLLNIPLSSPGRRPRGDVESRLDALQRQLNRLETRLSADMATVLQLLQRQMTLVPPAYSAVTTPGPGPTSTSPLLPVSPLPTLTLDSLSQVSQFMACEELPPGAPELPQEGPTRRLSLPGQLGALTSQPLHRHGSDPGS

SMILES | hERG current change (%, negative = inhibition) at 10uM
CN(C)C1(CNC(=O)c2cccc(S(=O)(=O)NCc3ccccc3)c2)CCCCC1 | -49.5%
Cl.N=c1ccn(Cc2ccc(Cl)cc2Cl)cc1 | -15.2%
O=C(Nc1ccccc1N1CCOCC1)c1ccc([N+](=O)[O-])cc1 | -8.59%
Cc1ccc(S(=O)(=O)N=Nc2c(O)[nH]c3ccccc23)cc1 | 13.1%
O=C(ON=C1CCN(c2ccc([N+](=O)[O-])cc2)CC1)c1ccccc1 | -47.5%
O=C(Nc1cccc2ccccc12)N1CCN(Cc2ccc3c(c2)OCO3)CC1 | -26.4%
c1ccc(CCNC2=NCCCS2)cc1 | -3.85%
O=S(=O)(Nc1ccccc1Cl)c1ccc(F)cc1 | -1.63%
CCCNC(=O)c1nc(C)n(-c2cc(Cl)cc(Cl)c2)n1 | -13.3%
COC(=O)CCC(=O)Nc1cccc(C(=O)Nc2cccc(Cl)c2)c1 | -22.4%
CCONC(=NC)c1nonc1N | 20.7%
COC(C(=O)NC1CC1)c1ccccc1 (centres unmarked) | 17%
COc1ccc(C(=O)NCCCN2CCOCC2)cc1Br | 3.34%
CC(C)Nc1ncnc2c1cnn2-c1ccccc1 | -8.11%
Cc1ccc(/C=C2\SC(=O)N(CCNC(=O)C3CSC4(C)CCC(=O)N34)C2=O)cc1 (centres unmarked) | -45.6%
CCn1c(SCc2cc(=O)n3ccsc3n2)nc2ccccc21 | -36.3%
Cc1cccc(N2CC(C(=O)Nc3ccc(S(=O)(=O)N4CCCCC4)cc3)CC2=O)c1C (centres unmarked) | 13.1%
O=C(C1CC1)N1CCN=C1SCc1ccccc1Cl | -11.2%
O=C(O)CSCC(=O)Nc1cccc2ccccc12 | 1.12%
Cc1cc(=O)oc2cc(OCC(=O)N(C)C3CCS(=O)(=O)C3)c(Cl)cc12 (centres unmarked) | 12.5%
NC(=O)CC(NC(=O)c1ccccc1)c1ccc(NCc2ccccn2)c([N+](=O)[O-])c1 (centres unmarked) | 5.65%
CCc1ccc(N(CC(=O)NC2CC2)S(=O)(=O)c2ccc(C)cc2)cc1 | 7.25%
O=C(COc1cccnc1[N+](=O)[O-])Nc1ccc(Cl)c(S(=O)(=O)N2CCOCC2)c1 | -44.5%

SMILES | hERG current change (%, negative = inhibition) at 10uM
COc1ccc(CC(=O)N2CCN(C)CC2)cc1OC.Cl | 17.7%
Cc1cc(C)n(-c2nc(NCCCO)c3c4c(sc3n2)CCCC4)n1 | -17.9%
O=C(N/N=C/c1cccc(F)c1)c1ccc(Cl)cc1 | 16.4%
Cc1ccccc1OCCCC(=O)Nc1nncs1 | -22.9%
Cc1ccccc1OCC(O)Cn1c(NCc2ccco2)nc2c1c(=O)[nH]c(=O)n2C (centres unmarked) | 4.8%
Cc1c(C)n(O)c2ccc3nonc3c12 | 7.55%
COc1cccc(/C=N/NC(=O)CO/N=C(\C)c2cccs2)c1OC | 4.14%
C#CCn1c(=NC(=O)c2sc3ccccc3c2Cl)sc2cc(S(N)(=O)=O)ccc21 | 5.13%
CCOC(=O)C1=C(C)N(C)C(=S)NC1c1c(OCC)ccc2ccccc12 (centres unmarked) | 6.65%
Cl.O=C(CN1CCC(C(=O)c2cccc(F)c2)CC1)NCc1cccs1 | -36.1%
CCCCN1C(=O)C(=O)N(CC(=O)N2N=C3/C(=C/c4ccco4)CCCC3C2c2ccco2)C1=O (centres unmarked) | -75%
Cc1c(NC(=S)NC(C)(C)C)c(=O)n(-c2ccccc2)n1C | 14.1%
CCN(CC)S(=O)(=O)c1ccc(N2CCCC2)c(NS(=O)(=O)c2cccs2)c1 | -10.9%
CCOC(=O)C1CCCN(Cc2ccc(-c3ccccc3)cc2)C1 (centres unmarked) | -10.5%
CCOCCCNC(=O)c1cn(C)c2ccc(S(=O)(=O)N3CCCCC3)cc2c1=O | 1.79%
Cc1cccc(NS(=O)(=O)c2cc(C(=O)N3CCc4ccccc4C3)ccc2Cl)c1C | -8.82%
COc1ccc(-c2noc(N3CCC(C(=O)NCCCN4CC(C)CC(C)C4)CC3)n2)cc1 (centres unmarked) | -18.1%
CCOc1cc(CNCc2ccc3c(c2)OCO3)ccc1OC.Cl | -24.2%
CS(=O)(=O)N(CCc1ccccc1)CC(=O)NCc1ccccn1 | 5.18%
O=C(CSc1nc(O)cc(=O)n1C1CCCC1)Nc1cccc(Cl)c1Cl | 1.51%
Cc1cccn2c(=O)c3cc(C(=O)N4COCC4(C)C)n(Cc4ccccc4)c3nc12 | 1.23%
CC(=O)c1cccc(NC(=S)NC(=O)Cc2ccccc2)c1 | -2.33%
O=C(c1ccc(S(=O)(=O)N2CCOCC2)cc1)N(Cc1ccco1)Cc1cccs1 | -44.5%

SMILES | hERG current change (%, negative = inhibition) at 10uM
CCOC(=O)c1[nH]c(C)c(C(=O)N2CCN(C(=O)c3ccco3)CC2)c1C | 8.88%
O=C(NCCc1ccccc1)c1cnc2ccccn2c1=O | -12%
Cc1c(C(=O)C(=O)NCC2CCCO2)c2ccccc2n1C (centres unmarked) | 16.6%
COc1ccc(S(=O)(=O)NCc2ccc3c(c2)OCO3)cc1OC | 7.39%
COc1ccc(F)c(CN2CCC(N3CCC(C(=O)N4CCOCC4)CC3)CC2)c1 | -13%
CCOC(=O)C1CCN(C(=O)c2ccc3c(c2)NC(=O)/C(=C\c2cccc(C)c2)S3)CC1 | -2.12%
O=C(Nc1cc(S(=O)(=O)N2CCOCC2)ccc1N1CCOCC1)C1CCCO1 (centres unmarked) | -3.99%
Cc1cc2c(cc1S(=O)(=O)NCc1ccccc1)OCC(=O)N2 | -22.8%
COc1ccccc1NC(=O)CCC(=O)O | 23.4%
Cc1nn(CC(=O)c2ccccc2Cl)c(C)c1[N+](=O)[O-] | -10.8%
Cc1ccc(Cn2c(N)c(S(=O)(=O)c3cccs3)c3nc4ccccc4nc32)cc1 | 6.56%
COC(=O)C1C2C=CC3(CN(c4cccc(C)c4)C(=O)C13)O2 (centres unmarked) | 21.7%
Cc1ccc(-c2nnc(Sc3nc4ccccc4o3)c3ccccc23)cc1 | 6.38%
Cc1nn(CCCC(=O)NCc2ccccc2Cl)c(=O)c2nccn12 | 11.3%
CCCNC(=S)Nc1c(C)n(C)n(-c2ccccc2)c1=O | 9.19%
CCCc1cc(=O)[nH]c(SCC(=O)CSc2nc(CCC)cc(=O)[nH]2)n1 | 11%
CCCCNC(=O)c1ccccc1Cl | 21.5%
N/C(Cn1cncn1)=N\OC(=O)c1ccc(Cl)cc1Cl | -9.29%
CC(=O)NC1C(OC(=O)/C=C/c2ccccc2)OC(COC(C)=O)C(OC(C)=O)C1OC(C)=O (centres unmarked) | -21.8%
CCCc1ccc(C(=O)[C@@H]2[C@@H](C(C)=O)N3c4ccc(F)cc4C=C[C@@H]3[C@@]23C(=O)Nc2ccccc23)cc1 | 4.86%
CC(NC(=O)C(=O)N1CCCCC1)C(c1cccs1)N1CCN(Cc2ccccc2)CC1 (centres unmarked) | -4.2%
O=C1CCC/C(=N/NC(=O)c2cc(NS(=O)(=O)c3cccs3)cc(NS(=O)(=O)c3cccs3)c2)C1 | 15.7%
CCOC(=O)C1(CCc2ccccc2)CCN(Cc2nccn2CC)CC1 | -66.2%

SMILES | hERG current change (%, negative = inhibition) at 10uM
COC(=O)CC1C(=O)NCCN1C(=O)CSc1nnnn1-c1ccc(Cl)cc1 (centres unmarked) | -8.68%
COc1ccc(OCCC(=O)OCC(=O)NCc2ccccc2OC)cc1 | -25.7%
CC(C)(C)[C@@H]1C=C(C(N)=O)O[C@H](OCc2ccc(CO)cc2)C1 | -3.3%
Cc1ccc(CN2CCNC2=O)cc1 | -7.3%
O=C(OCC(=O)N1CCCc2ccccc21)c1cc(Br)ccc1O | 12.4%
CCn1cc(CN2CCC(C(=O)Nc3cccc(-c4cccc(OC)c4)c3)CC2)c(C)n1 | -46.3%
CCOC(=O)CNC(=O)COc1coc(CN2CCN(Cc3ccccc3)CC2)cc1=O | -9.71%
COc1ccc(CCN(C)Cc2nc(Cc3ccc(OC)c(OC)c3)no2)cc1OC | 0.332%
Cc1ccc(C)c(NC(=S)NCc2ccc3c(c2)OCO3)c1 | 16.1%
CC1CCN(CCCNc2cc(NCCO)c([N+](=O)[O-])c3nonc23)CC1 | 19%
CCN(Cc1ccccc1)C(=O)c1ccc2c(=O)n3c(nc2c1)CCC3 | -10.7%
CN1CCC(N(C)C(=S)NCCc2ccccc2)CC1 | -31%
CCOc1ccc(-n2c(Cc3cc(=O)[nH]c(=O)[nH]3)nnc2SCc2cccnc2)cc1 | 11.4%
Cc1ccc(C)c(Nc2cc(C)nc(-c3ccccc3O)n2)c1 | 15%
C=CCC(Nc1ccco1)c1ccccc1.Cl (centres unmarked) | -7.03%
O=C(/C=C/Nc1ccc(S(=O)(=O)Nc2cnc3ccccc3n2)cc1)c1cccnc1 | -12.9%
Cc1ccc(CNC(=O)c2nnc(Cc3ccc(Cl)cc3)o2)cc1 | 7.49%
Cc1cc([N+](=O)[O-])nn1CC(=O)N/N=C/c1ccc(O)cc1O | -3.52%
Clc1ccc(-c2nc3ccc(Cl)cn3c2CN2CCOCC2)cc1 | -13.2%
NNC(=O)C1c2ccccc2Oc2ccccc21 | 20.2%
